The supplement of paper PMC3656093
± gives the standard deviation of the averaged measurements. The full ranking holds about 1,900 compounds; the median of “CD40L-induced NF-kB luciferase activity, plate-corrected, relative to DMSO (0) and IKK inhibitor VII (-100) controls” is about 0.032, and the lowest 2% start at about -26. The list shows a part of the results.

System: BL2-NFkB-Luc
Experiment: CD40L-induced NF-kB luciferase activity, plate-corrected, relative to DMSO (0) and IKK inhibitor VII (-100) controls (% normalized activity); higher = more NF-kB reporter activity (less inhibition)
Details: 9.4 µM; stimulus: tCD40L 64 ng/ml; 4.5 h
Protocol: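 BL2 B cells with a stable NF-kB response-element luciferase reporter (BL2-NFkB-Luc), 384-well. Cells were pre-incubated with compound at 9.4 uM for 1 h at 37 C, then stimulated with 64 ng/ml trimerized CD40L for 4.5 h; luciferase was read with Steady-Glo. Signal was normalised per plate in Genedata (median DMSO neutral control = 0, median IKK inhibitor VII at 50 uM = -100) with Assay Median plate-pattern correction; duplicate plates.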

SMILES	CD40L-induced NF-kB luciferase activity
COc1ccc(-c2nc(C)c(C(C)=O)n2O)cc1OC	5.47 ± 2.8
Cc1cc(C=NO)c(C)n1-c1ccc(Br)cc1	-0.84 ± 0.39
CC(=O)NC(NC(=S)N1CCCCCC1)C(Cl)(Cl)Cl (stereo not drawn)	-1.31 ± 1.2
COc1cccc(C2CC(=O)C3=C(C2)Nc2ccccc2N(C(=O)CCC(=O)O)C3c2ccc(F)cc2)c1 (stereo not drawn)	-1.96 ± 1.7
CC(=O)NC(Cc1ccccc1)C(=O)OCC(=O)c1ccccc1 (stereo not drawn)	-1.42 ± 3.2
Cc1ccc2occ(C(=O)c3ccco3)c(=O)c2c1	23.3 ± 3.3
O=C(NC(CO)Cc1ccc([N+](=O)[O-])cc1)C(Cl)Cl (stereo not drawn)	1.27 ± 0.15
COc1ccc(C(=O)/C=C/c2ccc(OC(=O)c3cc(OC)c(OC)c(OC)c3)cc2)cc1	-7.39 ± 2.8
O=C1NC2(Nc3ccccc31)C(=O)Nc1ccc(Br)cc12 (stereo not drawn)	1.79 ± 3.5
COc1ccc2c(c1OC)C(=O)NC(C)=C(C(=O)OC(C)(C)C)C2O (stereo not drawn)	-5.18 ± 8.2
Cc1nc(C(=O)Nc2ccccc2Cl)cc2c1[nH]c1ccccc12	10 ± 1.4
CCCCC[C@H](O)/C=C/[C@@H]1[C@@H](C/C=C\CCCC(=O)O)[C@@H](O)C[C@H]1O	-2.36 ± 2.1
CC(COc1ccccc1)N(CCCl)Cc1ccccc1 (stereo not drawn)	-2.44 ± 8.4
CCCNC(C)C(=O)Nc1ccccc1C (stereo not drawn)	1.52 ± 0.94
COc1ccc(CN(CCN(C)C)c2ccccn2)cc1	0.829 ± 0.31
CCOC(=O)C(Cc1cc(C(C)=O)ccc1OC(C)C)C(=O)OCC	2.32 ± 2.5
CC(C)(C)N(Cc1ccccc1)C(=O)c1ccc(Br)o1	-1.84 ± 1.1

SMILES	CD40L-induced NF-kB luciferase activity
COc1cc(C2NCCc3c2[nH]c2ccccc32)ccc1OC(C)C (stereo not drawn)	0.685 ± 0.022
NC(=O)N1c2ccccc2C=Cc2ccccc21	-2.95 ± 4.9
COc1ccc2oc(-c3ccco3)cc(=O)c2c1	119 ± 6.9
CCOc1cc2oc(=O)c3c(c2cc1Cl)CCC3	4.23 ± 1.7
COc1cc2c(cc1OC)C(c1cc3ccccc3oc1=O)=NC(C)(C)C2	-0.782 ± 0.12
CCNC(=O)C12CCC(C)(C(=O)O1)C2(C)C (stereo not drawn)	2.51 ± 3.4
CN(C)CCN(Cc1cccs1)c1ccccn1	-0.4 ± 1.3
NC(=O)[C@@H]1[C@@H]2C(=O)N(c3ccc(F)cc3)C(=O)[C@@H]2[C@H]2C=Cc3ccccc3N21	0.397 ± 0.3
CCOC(=O)C1(CCCc2ccccc2)CCN(C2CCN(C(C)=O)CC2)CC1	-2.72 ± 0.18
COc1ccc2[nH]c3c(c2c1)CCNC3C1CC=C(C)CC1 (stereo not drawn)	2.73 ± 1.5
CN(Cc1ccccc1)CC(O)COc1ccc(CNCc2cccnc2)cc1 (stereo not drawn)	-2.49 ± 2.2
Cc1cc(C(=O)Nc2ccccc2C(=O)N2CCCCC2)ccc1[N+](=O)[O-]	-2.36 ± 13
COc1cc(=O)n(C)c2ccccc12	0.654 ± 4.3
COc1ccc(N2C(=O)C3CCCN3C2=O)cc1 (stereo not drawn)	3.27 ± 8.9
O=Cc1ccccc1Oc1ccccc1	5.78 ± 6.1
COc1cc(-c2cccs2)cc(=O)c2c(C)oc(C)c12	-1.01 ± 0.32
